Binding data for one substance are collected here from article PMC6794377.

Sequences of proteins named here, by UniProt entry; tags and fusion partners are left off.
UniProt P07814: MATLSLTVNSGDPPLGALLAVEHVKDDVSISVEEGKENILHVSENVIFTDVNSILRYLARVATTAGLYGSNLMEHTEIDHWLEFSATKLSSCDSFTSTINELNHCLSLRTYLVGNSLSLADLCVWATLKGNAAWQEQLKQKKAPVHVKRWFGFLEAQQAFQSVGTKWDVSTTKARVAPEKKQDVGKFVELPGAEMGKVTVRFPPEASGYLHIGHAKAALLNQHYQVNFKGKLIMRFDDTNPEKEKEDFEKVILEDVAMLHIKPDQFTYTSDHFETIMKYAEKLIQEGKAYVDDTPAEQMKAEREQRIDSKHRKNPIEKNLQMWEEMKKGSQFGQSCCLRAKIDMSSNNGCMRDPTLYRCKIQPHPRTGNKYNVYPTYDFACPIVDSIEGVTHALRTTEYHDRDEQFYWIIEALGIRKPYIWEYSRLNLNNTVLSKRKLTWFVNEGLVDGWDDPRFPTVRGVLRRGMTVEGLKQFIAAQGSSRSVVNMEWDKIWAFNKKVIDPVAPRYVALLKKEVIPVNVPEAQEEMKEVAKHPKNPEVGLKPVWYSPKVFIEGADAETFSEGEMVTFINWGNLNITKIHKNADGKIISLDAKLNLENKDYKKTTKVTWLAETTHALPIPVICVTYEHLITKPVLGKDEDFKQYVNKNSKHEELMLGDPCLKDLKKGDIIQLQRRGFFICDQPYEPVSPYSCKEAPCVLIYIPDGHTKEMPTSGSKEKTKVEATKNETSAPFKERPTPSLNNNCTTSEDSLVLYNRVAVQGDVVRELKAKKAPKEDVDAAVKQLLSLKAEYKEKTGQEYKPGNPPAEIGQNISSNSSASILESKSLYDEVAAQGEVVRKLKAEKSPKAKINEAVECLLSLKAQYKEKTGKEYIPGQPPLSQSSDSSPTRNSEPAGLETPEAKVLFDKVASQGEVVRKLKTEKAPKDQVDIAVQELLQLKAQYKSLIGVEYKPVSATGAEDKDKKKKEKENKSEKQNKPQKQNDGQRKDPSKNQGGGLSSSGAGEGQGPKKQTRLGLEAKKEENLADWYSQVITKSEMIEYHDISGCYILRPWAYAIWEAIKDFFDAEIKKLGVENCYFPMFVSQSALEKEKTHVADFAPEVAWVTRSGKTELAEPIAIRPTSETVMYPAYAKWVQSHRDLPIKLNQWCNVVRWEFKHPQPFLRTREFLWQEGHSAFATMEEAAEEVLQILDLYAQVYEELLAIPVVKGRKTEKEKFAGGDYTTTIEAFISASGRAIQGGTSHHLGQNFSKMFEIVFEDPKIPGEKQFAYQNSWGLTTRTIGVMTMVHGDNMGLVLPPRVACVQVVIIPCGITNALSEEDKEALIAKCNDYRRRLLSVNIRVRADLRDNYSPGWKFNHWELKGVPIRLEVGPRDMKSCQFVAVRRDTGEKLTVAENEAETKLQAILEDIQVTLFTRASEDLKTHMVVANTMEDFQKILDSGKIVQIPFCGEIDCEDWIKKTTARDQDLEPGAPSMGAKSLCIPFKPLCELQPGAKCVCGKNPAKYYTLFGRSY

Assay in all cases: co-IP; FLAG-tagged hThrRS-L or mutant overexpressed in HEK293T; IP with anti-FLAG, Dynabeads protein G, 4°C; endogenous partners detected by western blotting
Assay [1] concerns the target T1, hThrRS-L-S459D with a C-terminal FLAG tag (human) (UniProt A2RTX5).
T1 sequence: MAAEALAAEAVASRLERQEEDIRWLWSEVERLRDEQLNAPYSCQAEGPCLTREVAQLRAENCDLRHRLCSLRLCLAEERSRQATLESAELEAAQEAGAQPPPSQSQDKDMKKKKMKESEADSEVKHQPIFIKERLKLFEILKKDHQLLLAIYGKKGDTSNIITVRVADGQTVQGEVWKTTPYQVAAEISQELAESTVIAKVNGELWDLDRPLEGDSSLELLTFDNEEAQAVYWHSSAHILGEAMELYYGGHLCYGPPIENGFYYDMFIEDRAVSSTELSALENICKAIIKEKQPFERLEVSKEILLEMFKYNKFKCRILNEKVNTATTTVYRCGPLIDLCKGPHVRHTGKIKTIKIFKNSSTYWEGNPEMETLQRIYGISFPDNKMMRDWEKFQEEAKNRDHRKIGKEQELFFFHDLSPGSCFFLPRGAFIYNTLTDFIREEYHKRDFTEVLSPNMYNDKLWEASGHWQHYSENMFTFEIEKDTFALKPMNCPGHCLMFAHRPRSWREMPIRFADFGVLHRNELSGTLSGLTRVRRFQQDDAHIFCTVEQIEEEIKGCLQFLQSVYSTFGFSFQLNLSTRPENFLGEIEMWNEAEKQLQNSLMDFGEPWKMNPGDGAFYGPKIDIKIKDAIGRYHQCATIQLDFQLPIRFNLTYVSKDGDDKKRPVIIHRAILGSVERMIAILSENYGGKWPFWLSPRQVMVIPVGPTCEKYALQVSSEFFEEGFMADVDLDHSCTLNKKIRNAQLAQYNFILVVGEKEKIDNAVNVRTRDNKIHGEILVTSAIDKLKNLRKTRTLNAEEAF

Assay [2] addresses T2, hThrRS-L-Hb/A-FLAG (human) (UniProt A2RTX5).
T2 sequence: T1 sequence with L57A, L64A, L68A, L71A, L75A, D459S

The target of assay [3] is T3, hThrRS-L-T163D with a C-terminal FLAG tag (human) (UniProt A2RTX5).
T3 sequence: T1 sequence with T163D, D459S

Positions count from the first letter of the chain named. These are yes or no findings as the source states them, for the method shown. In cells and extracts the contact can be indirect. Some binding calls cover weakened binding; strength is not graded here. Sequences can lack the tags named with a protein.

“GluProRS, endogenous in HEK293T (from UniProt P07814 1-1512) (enzyme)”: the binding entry is reported as “binds” in assay [1], “no binding” in assay [2] and “binds” in assay [3].
